Results taken from the supplement of paper PMC9151546.
Many values rest on one well or one pass, so single values are uncertain.

Key:
[1] = system: CHO-K1; test: micronucleus frequency (% of nucleated events); higher = more micronuclei (genotoxic)
[2] = system: CHO-K1; test: hypodiploid nuclei frequency (% of nucleated events); higher = more hypodiploid events (aneugenic)
Protocol: (§1)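 Flow-cytometric in vitro micronucleus assay (Litron MicroFlow) in CHO-K1 cells in 96-well plates, 19 concentrations (4.5-200 µM, n=1 per concentration). Without S9, cells were exposed for 24 h and sampled at 48 h. With Aroclor 1254-induced rat liver S9, cells were exposed for 3-4 h and sampled at 27-28 h. Read-outs are %MN and %hypodiploid nuclei relative to nucleated events, and relative survival as the nuclei-to-bead ratio versus the 1% DMSO vehicle control (x100).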

[3] = system: CHO-K1; test: relative survival (nuclei to bead ratio vs DMSO control) (% of vehicle control); higher = more surviving cells
Protocol: as §1
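For hypodiploid nuclei frequency (% of nucleated events) in this document: hypodiploid nuclei gated on a flow cytometer with 488 nm excitation after SYTOX Green staining, cultures at 37 °C, positive controls vinblastine without S9 and cyclophosphamide with S9.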
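For micronucleus frequency (% of nucleated events) in this document: cells lysed with nuclei stained by SYTOX Green, then micronucleus-gated events counted against nucleated events by flow cytometry with 488 nm excitation.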
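For relative survival (nuclei to bead ratio vs DMSO control) in this document: Lysed-cell nuclei stained with SYTOX Green and counted against counting beads by flow cytometry at 488 nm excitation, with vinblastine (no S9) and cyclophosphamide (plus S9) as positive controls.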

CC(O)CO (stereo not drawn) [1,2-Propylene glycol]
Settings	hypodiploid nuclei frequency, [2] [%]	micronucleus frequency, [1] [%]	relative survival, [3]
concentration: 4.44 (µM), S9 metabolic activation: with S9, exposure time: 3-4 hours	0.33	1.26	65.5
concentration: 4.44 (µM), S9 metabolic activation: without S9, exposure time: 24 hours	0.54	0.76	85
concentration: 5.55 (µM), S9 metabolic activation: with S9, exposure time: 3-4 hours	0.22	0.95	75.1
concentration: 5.55 (µM), S9 metabolic activation: without S9, exposure time: 24 hours	0.56	1.22	81.3
concentration: 6.93 (µM), S9 metabolic activation: with S9, exposure time: 3-4 hours	0.14	1	99.3
concentration: 6.93 (µM), S9 metabolic activation: without S9, exposure time: 24 hours	0.48	1	76.8
concentration: 8.66 (µM), S9 metabolic activation: with S9, exposure time: 3-4 hours	0.21	1.06	88.7
concentration: 8.66 (µM), S9 metabolic activation: without S9, exposure time: 24 hours	0.4	0.98	85
concentration: 10.8 (µM), S9 metabolic activation: with S9, exposure time: 3-4 hours	0.21	1.08	80.5
concentration: 10.8 (µM), S9 metabolic activation: without S9, exposure time: 24 hours	0.82	1.76	66.6
concentration: 13.5 (µM), S9 metabolic activation: with S9, exposure time: 3-4 hours	0.24	0.88	99.8
concentration: 13.5 (µM), S9 metabolic activation: without S9, exposure time: 24 hours	0.42	1.14	87.5
concentration: 16.9 (µM), S9 metabolic activation: with S9, exposure time: 3-4 hours	0.18	0.68	84.5
concentration: 16.9 (µM), S9 metabolic activation: without S9, exposure time: 24 hours	0.38	0.96	94.5
concentration: 21.2 (µM), S9 metabolic activation: with S9, exposure time: 3-4 hours	0.18	1.08	57.8
concentration: 21.2 (µM), S9 metabolic activation: without S9, exposure time: 24 hours	0.66	1.3	92.9
concentration: 26.4 (µM), S9 metabolic activation: with S9, exposure time: 3-4 hours	0.24	1.36	75.6
concentration: 26.4 (µM), S9 metabolic activation: without S9, exposure time: 24 hours	0.7	1.2	136
concentration: 33.1 (µM), S9 metabolic activation: with S9, exposure time: 3-4 hours	0.26	1.58	73.9
concentration: 33.1 (µM), S9 metabolic activation: without S9, exposure time: 24 hours	0.76	0.86	89.2
concentration: 41.3 (µM), S9 metabolic activation: with S9, exposure time: 3-4 hours	0.34	1.82	72.9
concentration: 41.3 (µM), S9 metabolic activation: without S9, exposure time: 24 hours	0.92	1.2	86.2
concentration: 51.6 (µM), S9 metabolic activation: with S9, exposure time: 3-4 hours	0.26	0.92	78
concentration: 51.6 (µM), S9 metabolic activation: without S9, exposure time: 24 hours	0.9	0.98	85
concentration: 64.6 (µM), S9 metabolic activation: with S9, exposure time: 3-4 hours	0.26	1.44	91.1
concentration: 64.6 (µM), S9 metabolic activation: without S9, exposure time: 24 hours	0.78	1.52	74.4
concentration: 80.7 (µM), S9 metabolic activation: with S9, exposure time: 3-4 hours	0.28	1.38	82
concentration: 80.7 (µM), S9 metabolic activation: without S9, exposure time: 24 hours	0.74	1.02	120
concentration: 101 (µM), S9 metabolic activation: with S9, exposure time: 3-4 hours	0.2	1.58	99.8
concentration: 101 (µM), S9 metabolic activation: without S9, exposure time: 24 hours	1.08	1.2	92.6
concentration: 126 (µM), S9 metabolic activation: with S9, exposure time: 3-4 hours	0.25	1.3	88
concentration: 126 (µM), S9 metabolic activation: without S9, exposure time: 24 hours	0.92	1.24	142
concentration: 158 (µM), S9 metabolic activation: with S9, exposure time: 3-4 hours	0.19	0.74	73.1
concentration: 158 (µM), S9 metabolic activation: without S9, exposure time: 24 hours	0.98	1.92	114
concentration: 197 (µM), S9 metabolic activation: with S9, exposure time: 3-4 hours	0.25	1.83	81.3
concentration: 197 (µM), S9 metabolic activation: without S9, exposure time: 24 hours	1.6	2.22	87.8
